# Hit rate of the full screen: of about 350,000 compounds, about 9,900 (2.8%) were called active. The inconclusive results got no clear call from the source; some entries with a clear call stand among them for comparison. The call rests on the fitted dose curve; in most records, active means well fitted activation curve with a large enough effect; inconclusive means small, poorly fitted or top-dose-only effect; inactive means no such curve, though single readings can be large or run the other way. No potency is given beside an inconclusive call; the fits are too rough.
# Experiment: A quantitative high throughput screen for small molecules that induce DNA re-replication in MCF 10a normal breast cells. Further: nearly all actives have a fitted effect of over 50% in size. On activity, positive = re-replication: % of control where 0% means no effect.
# Details: MCF 10A DNA re-replication, Hoechst nuclear intensity, 48 h; activity, positive = re-replication: at 46.1 µM (top of the series)
# Potency means the concentration at half of the fitted maximal effect; tags describe the fitted curve by direction and shape.
Structure (SMILES),"activity, positive = re-replication",Potency
CCOc1ncccc1C(=O)Nc1ccc(OC)c(S(=O)(=O)N2CCCCC2)c1,inactive: 6.89%,–
CCCCCCn1nc(C(=O)OCC(=O)c2c(N)n(C)c(=O)n(C)c2=O)c2ccccc2c1=O,–,"inconclusive [activator, single point]"
Cc1ccc(S(=O)(=O)N[C@H](C(=O)Oc2ccc3c(C(F)(F)F)cc(=O)oc3c2)c2ccccc2)cc1,–,"inconclusive [activator, single point]"
Cc1cc(SCc2ccc(Cl)cc2Cl)nc(=O)[nH]1,–,active: 9.2 µM
CC(NC(=O)COC(=O)Cn1cc(C(F)(F)F)ccc1=O)c1ccccc1 (configuration not stated),–,"inconclusive [activator, single point]"
O=C(CCN1CCN(Cc2ccccc2)CC1)Nc1ccc(OCc2ccccc2)cc1,–,"inconclusive [activator, single point]"
COc1ccc(-n2c(N)c(C(=O)NCC3CCCO3)c3nc4ccccc4nc32)c(OC)c1 (configuration not stated),–,"inconclusive [activator, single point]"
CC(C)c1ccc2oc(=O)cc(CN3CCCCC3)c2c1,–,"inconclusive [activator, partial curve, poor fit]"
Cc1ccc(C2=NN(C(=S)Nc3ccccc3)C(c3ccco3)C2)cc1 (configuration not stated),inactive: -1.71%,–
O=C1NC[C@H](Cc2ccccc2)N(CCc2cccc(F)c2)C1=O,inactive: 2.85%,–
CCN(CC)S(=O)(=O)c1cccc(C(=O)N/N=C/c2ccc([N+](=O)[O-])o2)c1,–,"inconclusive [activator, single point]"
CC(=O)N(C1=C(Cl)C(=O)c2ccccc2C1=O)c1ccc(C(=O)O)cc1,–,active: 5.8 µM
CC1(C)CC(=O)C(C(c2ccncc2)C2C(=O)CC(C)(C)CC2=O)C(=O)C1,inactive: 1.44%,–
CN1CCN(c2nc(-c3ccncc3)nc3ccccc23)CC1,–,"inconclusive [activator, partial curve]"
CCCc1cc(=O)[nH]c2nnc(SCC(=O)Nc3cccc(NC(C)=O)c3)n12,–,"inconclusive [activator, partial curve, poor fit]"
O=C(c1cc(F)ccc1F)C1CCCN(C(=O)CCN2CCCCO2)C1 (configuration not stated),inactive: -2.51%,–
COCC(C)n1c(C)cc(C(=O)CSc2nc3ccccc3c(=O)[nH]2)c1C (configuration not stated),–,"inconclusive [activator, full curve, poor fit]"
c1ccc2c(c1)oc1c(N3CCN(Cc4ccc5c(c4)OCO5)CC3)ncnc12,–,"inconclusive [activator, single point]"
CCCn1c(N)c(C(=O)CN(C)CC(=O)Nc2ccccc2C(F)(F)F)c(=O)[nH]c1=O,inactive: 9.56%,–
c1ccc(Nc2ncnc3sccc23)cc1,–,"inconclusive [activator, single point]"
O=C(O)c1ccc(Oc2c(C(F)(F)F)oc3cc(O)ccc3c2=O)cc1,–,"inconclusive [activator, single point]"
CC1(C2CC2)NC(=O)N(CC(=O)NCc2ccc(Cl)cc2Cl)C1=O (configuration not stated),inactive: 22.9%,–
COCCn1c(C)cc(C(=O)COC(=O)c2n[nH]c3ccccc23)c1C,–,"inconclusive [activator, partial curve, poor fit]"

Structure (SMILES),"activity, positive = re-replication",Potency
COc1ccc(C2=NN(C(=O)c3cccnc3)C(c3ccccc3)C2)cc1 (configuration not stated),–,"inconclusive [activator, full curve, poor fit]"
CNC(=O)C(=O)NCC1OCCCN1S(=O)(=O)c1cccs1 (configuration not stated),–,"inconclusive [activator, single point]"
CCOC(=O)C1=C(C)NC(C)=C(C(=O)OCC)C1C(=O)OCC(=O)NC(C)c1ccccc1 (configuration not stated),–,"inconclusive [activator, partial curve, poor fit]"
Cc1nc2ccc(C(=O)OCc3ccccc3Br)cc2nc1C,–,"inconclusive [activator, single point]"
CO/N=C\CC(=O)Nc1ccc(Cl)c(Cl)c1,–,active: 16.4 µM
CCN(CC)CCN(C(=O)c1ccc2c(c1)CCCC2)c1nc2ccc(OC)cc2s1,–,"inconclusive [activator, single point]"
Cc1cc(F)ccc1NC(=S)NC1CCCC1,inactive: -0.143%,–
CC(=O)c1ccc(CCCCc2ccc(C(C)=O)cc2)cc1,–,"inconclusive [activator, partial curve, poor fit]"
Cc1ccc2c(c1)-c1nc3ccccc3cc1C2=NC1CCCCC1,–,"inconclusive [activator, single point]"
COc1cc(NC(C)CCc2ccccc2)cc(OC)c1OC (configuration not stated),–,"inconclusive [activator, full curve]"
COCc1cc(=O)[nH]c2cc(NC(=O)C3CC3)c(C)cc12,–,"inconclusive [activator, single point]"
NNc1nc2c(-c3cccc(C(F)(F)F)c3)nnn2c2ccccc12,–,active: 2.91 µM
CN(CC(=O)Nc1ccc(OC(F)(F)F)cc1)C1CCCCC1,–,"inconclusive [activator, partial curve, poor fit]"
Cn1c2ccccc2c2ccc3c(c21)C(=O)C=CC3=O,–,active: 6.51 µM
CC[C@@H]1C=C(C)C[C@H](C)C[C@H](OC)[C@H]2O[C@@](O)(C(=O)C(=O)N3CCCC[C@H]3C(=O)O[C@H](/C(C)=C/[C@@H]3CC[C@@H](O)[C@H](OC)C3)[C@H](C)[C@@H](O)CC1=O)[C@H](C)C[C@@H]2OC,–,"inconclusive [activator, partial curve, poor fit]"
COc1ccccc1NC(=O)c1cc2n(n1)C(C(F)(F)F)CC(c1ccc3c(c1)OCO3)N2 (configuration not stated),–,"inconclusive [activator, single point]"
COc1cccc2sc(Nc3nc(-c4ccncc4)cs3)nc12,–,active: 20.6 µM
Cc1nn(-c2ccc(F)cc2)c(Cl)c1/C=C1\C(=O)Nc2ccccc21,–,active: 8.2 µM
COc1ccccc1NC(=O)c1ccc(NC(=O)COC(=O)CC(NC(=O)c2ccccc2Cl)c2ccccc2)cc1 (configuration not stated),–,"inconclusive [activator, single point]"
CCCCn1c(=O)[nH]c(=O)c2c(C(=O)OCC)cc(-c3ccc(OC(F)F)cc3)nc21,–,"inconclusive [activator, full curve, poor fit]"
COc1nc(-c2ccccc2)nc(-c2ccccc2)c1C,–,active: 23.1 µM
CC(C)n1cnc2c(Nc3cccc(Cl)c3)nc(N(CCO)CCCO)nc21,–,"inconclusive [activator, single point]"
COc1ccc(N2CCN(c3ncnc4c3cnn4-c3ccc(C)cc3C)CC2)cc1,inactive: -0.125%,–

Structure (SMILES),"activity, positive = re-replication",Potency
O=C(N/N=C/c1cn(-c2cccs2)nc1-c1ccccc1)c1ccc(O)cc1,–,"inconclusive [activator, single point]"
COc1ccc(CCNC(=O)CN(c2ccccc2OC)S(C)(=O)=O)cc1OC,–,"inconclusive [activator, single point]"
COc1ccc(Br)cc1/C=C/C(=O)c1ccc(NC(C)=O)cc1,–,active: 6.51 µM
Cc1ccc(NC(=O)c2c([N+](=O)[O-])c(C(C)(C)C)nn2C)c(C)c1,–,"inconclusive [activator, partial curve, poor fit]"
Cc1[nH]c2ccccc2c1C(=O)CN1CCN(c2ccc(Cl)cc2)CC1,inactive: 17.4%,–
CCN(CC)CCOc1c(Br)ccc2c1sc1nc3n(c(=O)c12)CCC3,–,"inconclusive [activator, single point]"
COc1cccc(-c2nn(-c3ccccc3)cc2CN(C)Cc2c(C)nc3ccccn23)c1,inactive: 10.9%,–
COc1cc(CN2CCCC(C(=O)N3CCc4ccccc4C3)C2)cc(OC)c1OC (configuration not stated),–,"inconclusive [activator, single point]"
O=C(Nc1cnn(Cc2ccc(F)cc2)c1)c1cnccn1,–,"inconclusive [activator, partial curve, poor fit]"
CN(C(=O)c1nn(C)c2c1CSc1ccccc1-2)c1ccc(F)cc1,inactive: 14.6%,–
Cc1cccc(C)c1NC(=O)Cn1nnnc1N,inactive: -0.774%,–
Cc1nc2ccccc2nc(C)c1=NOCc1cccc(F)c1,–,"inconclusive [activator, partial curve, poor fit]"
CCc1ccc(-c2nnn(CCC(=O)OC)n2)cc1,–,"inconclusive [activator, partial curve, poor fit]"
COCCn1c(Cc2ccccc2)nnc1SCC(=O)Nc1oc(C)c2c(C)n[nH]c(=O)c12,inactive: 1.94%,–
OC(c1cc(-c2cccc(Cl)c2)nc2ccccc12)C1CCCCN1 (configuration not stated),–,"inconclusive [activator, single point]"
Cc1ccc(C)n1-c1nc(=S)[nH][nH]1,inactive: -2.33%,–
COc1ccc(C(=O)N/N=C/C(C)c2ccccc2)cc1OC (configuration not stated),–,"inconclusive [activator, single point]"
CCOc1ccccc1Nc1nnc(SC(C)C(=O)Nc2nc(-c3ccccc3)cs2)s1 (configuration not stated),–,"inconclusive [activator, full curve, poor fit]"
COc1ccccc1CNC(=O)c1cccc(S(=O)(=O)N2CCN(c3ccc(F)cc3)CC2)c1,inactive: 5.16%,–
Cc1cccn2c(=O)c(/C=C(\C#N)C(=O)NC3CCS(=O)(=O)C3)c(N3CCC(C(N)=O)CC3)nc12 (configuration not stated),–,"inconclusive [activator, partial curve, poor fit]"
Cn1cc(/C=C2\SC(=S)N(NC(=O)c3ccccc3Cl)C2=O)c2ccccc21,inactive: -11.4%,–
